Laboratory results taken from the RNAGym collection of RNA variant scans (doi:10.7554/elife.90254).
Read counts are not given, so values of variants with three or more changes are uncertain.

B1: LINE1-mini (parent)
chain: GGCAGAGCUCAACACAGCGUGGCAAAGUGGCUGUGGCUAGACUGCC

Variants of: B1
Assay: self-cleavage, relative activity (ratio to wild type); higher = more cleavage; in vitro, sequencing; the parent is a self-cleaving ribozyme

Variant | self-cleavage
GGCAGAGCUCAACAUAGCGUGGCUAAGUGGCUGUGGCUAGACUGCA | 0.17
GGCAGAGCUCAACAUAGCGUGGCUAAGCGGCUGUGGCUAGACUGCC | 0.2
GGCAGAGCUCAACAUAGCGUGGCACAGUGACUGUGGCUAGACUGCC | 0.15
GGCAGAGCUCAACAUAGCGUGGCACAGCGGCUGUGGCUAGACUGCC | 0.88
GGCAGAGCUCAACAUAGCGUGGCACAGUGGCGGUGGAUAGACUGCC | 0.02
GGCAGAGCUCAACAUAGCGUGGCACAGUGGCUGUGGCUAGACCGUC | 0.07
GGCAGAGCUCAACAUAGCGUGGCAGAGUGGCUGUGUCUAGACUGCC | 0.08
GGCAGAGCUCAACAUAGCGUGGCAACGUGGCUCUGGCUAGAGUGCC | 0.11
GGCAGAGCUCAACAUAGCGUGGCAACGUGGCUGGGGCUAGACUGCC | 0.02
GGCAGAGCUCAACAUAGCGUGGCAAAGUGGCUGUGGCUGCUCUACC | 0.2
GGCAGAGCUCAACAUAGCGUGGCAAAGUGGCUGUGGCUAGCCUGCU | 0.04
GGCAGAGCUCAACAUAGCGUGGCAAAGUGGCUGUGGCUAGUCUGUC | 0.26
GGCAGAGCUCAACAUAGAGUGGAAAAGUGGCUGUGGCUAUACUGCC | 0.02
GGCAGAGCUCAACAUAGGGUGGCAAGGUGGCUGCGGCUAGACUGCC | 0
GGCAGAGCUCAACAUAGGGUGGCAAAGUUGCUUUGGCUAGACUGCC | 0.16
GGCAGAGCUCAACAUAGGGUGGCAAAGAGGCUGUGGCUAGACUGCC | 0.06
GGCAGAGCUCAACAUAGGGUGGCAAAGUGGCUGUGGCGAGACUGCC | 0.04
GGCAGAGCUCAACAUAGUGUGGCAAAGUGGCAGUGGCUGGACUGCC | 0.04
GGCAGAGCUCAACAUAGCGUGGAAAAGUGGCUGUGGCUGGACUGCC | 0.12

Variant | self-cleavage
GGCAGAGCUCAACAUAGCGUGGAAAAGUGUCUGUGGCUAGACUGCU | 0.53
GGCAGAGCUCAACAUAGCGUGGAAAAGGGGCUGUGGCUAGACUGCC | 1.11
GGCAGAGCUCAACAUAGCGUGGAAAAGUGGCUGUGGCAAGGAUGCC | 0
GGCAGAGCUCAACAUAGCGUGGGACAGUGGCUGUGGCAAGACUGCC | 0.19
GGCAGAGCUCAACAUAGCGUGGUAAAGUGGAUGUGGCUAGACUGCC | 0.07
GGCAGAGCUCAACAUAGCGUGGCAAAGUGGAUGUGGCUAGACUGCU | 0.17
GGCAGAGCUCAACAUAGCGUGGCAAAGUGGGUGUGGCUAGACUGCA | 0.04
GGCAGAGCUCAACAUAGCGUGGCAAAGUGGGUGUAGCUAAAGUGCC | 0.02
GGCAGAGCUCAACAUAGCGUGGCAAAGUGGUUGUGGUUAGACUGCC | 0.17
GGCAGAGCUCAACAUAGCGUGGCAAAGUGGUUGUGGCUAGACUGAC | 0.03
GGCAGAGCUCAACAUAGCGUGGCAAAGUGGCUGUGGAUAGACUUCC | 0.07
GGCAGAGCUCAACAUAGCGUGGCAAAGUGGCUGUGGGUAGCCUGCC | 0.04
GGCAGAGCUCAACAUAGCGUGGCAAAGUGGCUGUGGUUAGACCGCC | 0.01
GGCAGAGCUCAACAUAACGUGGCUAAUUGGCUGUGGCUAGACUGCC | 0.07
GGCAGAGCUCAACAUAACGUGGCAAAGUGGCUGUGGCUCGACUGCC | 0.04
GGCAGAGCUCAACAUAACGUAGCAAAGUGGCUGUGGCUAGACUGCC | 0.07
GGCAGAGCUCAACAUAACGUGGCAAAGCGGCUGUGGCUAGACUGCA | 0.08
GGCAGAGCUCAACAUACCGUGGCAAUGUGGCUGUGGCUAGACUGCC | 0.11
GGCAGAGCUCAACAUACAGUGGCAAAGUGCCUGUGGCUACACUGUC | 0.01

Variant | self-cleavage
GGCAGAGCUCAACAUACCGUGGCAAAGUGGCUGUGGCUAUACUGCC | 0
GGCAGAGCUCAACAUAUCGUGGCAAAAUGGAUGUGGCUAGACUGCC | 0.86
GGCAGAGCUCAACAUAUCGUGGCAAAUUGGCUGUGGCUAGACUUCC | 0.05
GGCAGAGCUCAACAUAUCGGGGCAAAGUGACUGUGGCUAGACUGCC | 0.02
GGCAGAGCUCAACAUAGCCUGGGAAAGUGGCUGUGGCUAGACUGCC | 0.65
GGCAGAGCUCAACAUAGCCUGCCAAAGUGUCUGUGGCUAGACUGCC | 0.06
GGCAGAGCUCAACAUAGCCUGGCAAAGUGGCUGUGGCUAUACUGCC | 0.12
GGCAGAGCUCAACAUAGCUUGGCAAAGUGGCUGCGGCUAGAAUGCC | 0.04
GGCAGAGCUCAACAUAGCGUAGAAAAGUGGCUGUGGCUAGACUGCC | 1.41
GGCAGAGCUCAACAUAGCGUAGCAAAGUGGCUGUGGUUAGACCGGC | 0.11
GGCAGAGCUCAACAUAGCGUAGCAAAGUGGCUGUGGCUAGAAUGCC | 0.07
GGCAGAGCUCAACAUAGCGUAGCAAAUUGGCUUUGGCUAGACUGCC | 1.01
GGCAGAGCUCAACAUAGCGUCGCAAAGUGGAUGUGGCUAGACUGCC | 0.03
GGCAGAGCUCAACAUAGCGUCUCAAAGUGGCUGUGGCUAGAGUGCC | 0.37
GGCAGAGCUCAACAUAGCGUCUCAAAUUGGCUGUGGCUAGACUGCC | 0.79
GGCAGAGCUCAACAUAGCGUUGCAGAGUGGCUGUGGCUAGACCGCC | 0.02
GGCAGAGCUCAACAUAGCGUUGCAAAGUGGCUGUGGCUAGACUGCA | 0.85
GGCAGAGCUCAACAUAGCGUUACAGAGUGGCUGUGCCUAGACUGCC | 0.03
